The results in this text go back to PubChem BioAssay AID1963576 (National Center for Advancing Translational Sciences (NCATS), 2024).

The campaign covered roughly 46,000 compounds. About 60 (0.1%) were called active. Not shown: some 3% with an inconclusive outcome. Calls come from the whole dose curve; as a rule, active = well fitted inhibition curve with a large enough effect; inconclusive = small, poorly fitted or top-dose-only effect; inactive = no such curve, though single readings can be large or run the other way. Some of the results follow.

The assay in a line: Primary qHTS assay for Inhibitors of ovarian cancer metastasis using an organotypic tumor microenvironment (TME) model.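 For activity change, negative = inhibition: plate controls were DMSO wells for no effect and tomatine positive control wells for full effect.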 Note: nearly all actives have a fitted effect of over 65% in size. As to conditions: SKOV3ip1-GFP adhesion/invasion on 3D omental model, fluorescence; series mostly up to 45.8 µM; activity change, negative = inhibition: at the top concentration. In short, it runs like this: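 Adhesion/invasion was scored as fixed GFP-labeled SKOV3ip1 cell counts (488/509 nm), normalized to DMSO and tomatine controls. Cancer cells in serum-free medium, with four compound doses (0.36-46 umol/L), sat 2 hr at RT then 16 hr at 37 C on a 48 hr fibroblast/mesothelial/ECM culture.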
On the technique in general: qHTS replaces the single test concentration by a dilution series.
As to `C=Cc1ccc(Cn2c(C)c(CNCc3ccc(SC)cc3)c(C(=O)O)c2C)cc1`, the “activity change, negative = inhibition” value is inactive: 1.62%.
On to `O=C(CN1C(=O)c2cccc3cccc1c23)Nc1cccc(F)c1`, for which the outcome was inactive.
As for `CC(=O)Nc1cccc(NC(=O)CSc2nccn2C2CCCC2)c1`, the “activity change, negative = inhibition” value is inactive: -2.6%.
Turning to `CCc1cccc(NC(=O)c2cc3c(s2)-c2ccccc2OC3)c1`, the outcome was inactive.
Same read-out and setting: the same measure for `Cc1cc(C)c(NC(=O)C(=O)NCC(c2cccnc2)N2CCN(c3ccccc3F)CC2)c(C)c1` (stereo unspecified): “inactive”.
With `Cc1ccc2[nH]c(=O)c3cc(C(=O)N(CCCOC(C)C)Cc4ccco4)sc3c2c1`, the “activity change, negative = inhibition” value is inactive: -11.8%.
Turning to `COc1ccc(Cl)cc1NC(=O)CSc1nnc2[nH]c(=O)cc(-c3ccccc3)n12`, the “activity change, negative = inhibition” value is inactive: -3.15%.
The same measure, in the same setting: under `CCC(Sc1ncc(S(=O)(=O)c2ccc(Cl)cc2)c(=O)[nH]1)C(=O)Nc1ccc(OC)cc1` (stereo unspecified) stands inactive: 2.77%; under `Cc1ccc(OCc2nc(C#N)c(NCCc3ccccc3)o2)cc1`, inactive: 6.7%; under `Cc1ccccc1NC(=O)CSC1=Nc2ccccc2C2=NC(Cc3ccccc3)C(=O)N12` (stereo unspecified), inactive: 3.19%.
Consider `COC(=O)c1ccc2c(=O)n3nc(Nc4cc(OC)ccc4OC)sc3nc2c1`, for which the result was inactive.
With `COC(=O)c1ccccc1NC(=O)c1oc2ccc3c(c2c1C)C(=O)CC(C)(C)O3`, the compound was called inactive.
`O=C(NCc1nc2ccccc2n1Cc1ccccc1Cl)c1ccccc1`: the “activity change, negative = inhibition” value is inactive: 11.9%.
Regarding `COC(=O)c1cc2sc(Cl)cc2n1CC(=O)Nc1cc(OC)cc(OC)c1`, the “activity change, negative = inhibition” value is inactive: 7.31%.
On the same count and under the same terms, under `O=C1CN(C(=O)COc2ccccc2)C(c2ccc(F)cc2)c2cc(Br)ccc2N1` (stereo unspecified) stands inactive: -11.3%; under `CCCc1nn2c(=O)cc(COC(=O)C3CCCCC3)nc2s1`, inactive: 0.842%.
In the case of `Cc1ccc(NC(=O)CCCn2c(=O)c3cccn3c3ccccc32)cc1Cl`, the compound was called inactive.
Take `COc1ccc(-c2nn(-c3ccc(F)cc3)c3c2cnc2ccc(F)cc23)cc1OC`: the “activity change, negative = inhibition” value was inactive: 15.9%.
Still for that read-out and setting: the same measure for `COc1cccc(CNC(=O)c2ccc3c(c2)N(Cc2ccc(F)cc2Cl)C(=O)c2ccccc2S3)c1`: inactive: -5.13%; for `Cc1ccccc1CN1C(=O)c2ccccc2Sc2ccc(C(=O)NCc3ccccc3)cc21`: inactive: 1.92%.
The same measure, in the same setting: the same measure for `Cc1ccc(Cl)cc1NC(=O)Nc1cn(CC(C)C)c(=O)c2ccccc12`: inactive: -6.6%.
`CCN(CCCNC(=O)c1cc(Nc2ccc(OC)cc2)nc2ccccc12)c1cccc(C)c1`: the “activity change, negative = inhibition” value was inactive: -6.26%.
On the same count and under the same terms, the same measure for `COCCn1c(SCC(=O)c2c(C)[nH]c3ccccc23)nc2cc(C(=O)NC(C)C)ccc2c1=O`: inactive: 66.4%.
Still for that read-out and setting: the same measure for `CCOc1ccc(CCNC(=O)Cn2ccc3cc(S(=O)(=O)N4CCCCC4)ccc32)cc1`: inactive: -1.94%; for `Cc1ccc(-n2c(=O)[nH]c3cc(C(=O)NCCc4ccccc4)ccc3c2=O)cc1`: inactive: -7.37%.
The same measure, in the same setting: under `Cc1ccc(NC(=O)NC(C)c2c(-n3cccc3)sc(C)c2C)cc1F` (stereo unspecified) stands inactive: -15.1%; under `COc1cc(NC(=O)C2CCN(c3nnc(C)c4c(C)n(-c5ccccc5)nc34)CC2)cc(OC)c1`, inactive: 0.948%; under `Cc1ccc2c(C)c(C(=O)NCC(c3ccc(Cl)cc3)N3CCOCC3)oc2c1` (stereo unspecified), inactive: 0.327%.
As for `CCOC(=O)c1ccc(NC(=O)CSc2nnc(-c3ccncc3)n2-c2ccccc2)cc1`, the “activity change, negative = inhibition” value is inactive: 2.11%.
Same read-out and setting: the same measure for `CCN(C(=O)CSc1nc2ccccc2n1Cc1ccccc1C#N)c1ccccc1`: inactive: -4.25%; for `Cc1cccc(C)c1NC(=O)Cn1c(=O)n(Cc2ccccc2Cl)c(=O)c2cccnc21`: inactive: 4.46%; for `NC1(c2ccc(-c3nc4ccn5c(=O)[nH]nc5c4cc3-c3ccccc3)cc2)CCC1`: inactive: -16.5%.
Same read-out and setting: the same measure for `Cc1ccc(-c2nc(S(=O)(=O)c3ccc(C)cc3)c(SCC(=O)c3ccccc3)o2)cc1`: inactive: -3.77%; for `COc1ccc(-n2nc(C(=O)Nc3ccc(C)cn3)c3c4ccccc4n(C)c3c2=O)cc1Cl`: inactive: -8.77%.
Take `CCOc1ccc(CNC(=O)c2cnc3c(C)cccn3c2=O)cc1`: the “activity change, negative = inhibition” value was inactive: 4.85%.
For the compound `CCC(c1ccc(O)cc1)C(CC)c1ccc(O)cc1` (stereo unspecified), the “activity change, negative = inhibition” value was inactive: -20.7%.
Still for that read-out and setting: under `Cc1ccc2c(c1)c(=O)c1ccccc1n2CCCC(=O)Nc1ccc(Cl)cc1C` stands inactive: 2.82%.
Consider `CCOC(=O)c1ccccc1NC(=O)c1cnn(-c2ccc(OC)cc2)c1C1CCN(C(=O)OC(C)(C)C)CC1`, for which the call was inactive.
For `O=C(/C=C/c1ccccc1)Nc1nc(-c2cccs2)ns1`, the “activity change, negative = inhibition” value is inactive: -5.6%.
Take `COc1cccc(NC(=O)CCc2nnc3n(CC(C)C)c(=O)c4ccccc4n23)c1`: the result was inactive.
Turning to `CC(=O)c1ccc(NC(=O)CN2C(=O)CCc3cc(S(=O)(=O)N4CCC(C)CC4)ccc32)cc1`, the compound was classed as inactive.
With `N#C/C(=C\c1ccccc1F)c1nc2ccccc2c(=O)[nH]1`, the “activity change, negative = inhibition” value was inactive: 14.1%.
As to `CCOc1ccccc1C(=O)Nc1cc2c(cc1N1CCCCC1)n(C)c(=O)n2C`, the compound was classed as inactive.
On the same count and under the same terms, the same measure for `O=C(Nc1ccccc1F)c1oc2ccccc2c1NC(=O)C12CC3CC(CC(C3)C1)C2`: “inactive”.
On the same count and under the same terms, the same measure for `COc1ccc(NC(=O)CSc2n[nH]c(-c3ccccc3)n2)cc1Cl`: “inactive”.
In the case of `CCC(O)c1nc2ccccc2n1CCOc1cc(C)cc(C)c1` (stereo unspecified), the “activity change, negative = inhibition” value was inactive: -8.4%.
For the compound `O=C(Nc1ccc(Cl)c(C(F)(F)F)c1)c1cc2nc(-c3ccc4c(c3)OCO4)cc(C(F)(F)F)n2n1`, the compound was called inactive.
With `CCCn1ccc2c(OCC(=O)Nc3ccc(C(F)(F)F)cc3)cccc2c1=O`, the “activity change, negative = inhibition” value was inactive: -11.9%.
Same read-out and setting: the same measure for `Cc1ccc(CN(C(=O)c2ccc([N+](=O)[O-])cc2)c2ccccn2)cc1`: inactive: 2.87%.
Regarding `Cc1cc(Nc2cccc(C(F)(F)F)c2)nc2ccc(NC(=O)c3cncc(Br)c3)cc12`, the compound was called inactive.
With `NC(=O)c1noc([C@H](CCCC2CCCCC2)CC(=O)NO)n1`, the “activity change, negative = inhibition” value is inactive: 4.85%.
In the case of `COc1ccc(OC)c(-n2cnc3cc(C(=O)NCCc4ccccc4)ccc32)c1`, the “activity change, negative = inhibition” value was inactive: 15.1%.
The same measure, in the same setting: under `CC1(CN2CCC(n3c(=O)[nH]c4ccccc43)CC2)OCc2ccccc2-n2cccc21` (stereo unspecified) stands inactive: 0.794%; under `CCOC(=O)c1noc2nc(C)n(CC(=O)Nc3ccc(Br)cc3C)c(=O)c12`, inactive: -3.17%.
As to `CCOc1ccccc1N(CC)C(=O)c1cc2c(=O)n(CC)c3ccccc3c2s1`, the result was inactive.
For `N#Cc1cc2c(=O)n3ccccc3nc2n(-c2nnc(SCc3ccccc3F)s2)c1=O`, the “activity change, negative = inhibition” value is inactive: 3.5%.
With `CC(C(=O)NCc1ccc(Cl)cc1)n1ccc2cc(S(=O)(=O)N3CCCC3)ccc21` (stereo unspecified), the “activity change, negative = inhibition” value is inactive: 0.634%.
For `CSc1nnc2c(n1)OC(c1cccc(O)c1Cl)Nc1ccccc1-2` (stereo unspecified), the outcome was inactive.
With `CC1=C(C(=O)Nc2ccc(C)cc2C)C(c2ccc[nH]2)n2ncnc2N1` (stereo unspecified), the “activity change, negative = inhibition” value is inactive: -22.6%.
The same measure, in the same setting: under `Cc1ccc(-c2nnc3ccccc3c2C(=O)Nc2cccc(C(F)(F)F)c2)cc1` stands inactive: -5.01%; under `CC(C)OC(=O)c1c(NC(=O)c2cc3nc(-c4ccccc4)cc(C(F)(F)F)n3n2)sc2c1CCCC2`, inactive: 14.3%.
